We go through 85 molecules from article PMC4336329 (PLoS ONE, 2015).

SMILES strings stand for the structures. In all, about 310,000 compounds went through this assay and about 2,200 (0.71%) showed an effect of 50% or more. The effect is printed as a negative number. The list shows a part of the results.

In the experiment the target is human ether-à-go-go-related gene (hERG) potassium channel (human, UniProt Q12809). The experiment is described as follows: primary screen, population patch clamp on CHO cells stably expressing hERG.
Chain of human ether-à-go-go-related gene (hERG) potassium channel (Q12809 whole entry, looked up): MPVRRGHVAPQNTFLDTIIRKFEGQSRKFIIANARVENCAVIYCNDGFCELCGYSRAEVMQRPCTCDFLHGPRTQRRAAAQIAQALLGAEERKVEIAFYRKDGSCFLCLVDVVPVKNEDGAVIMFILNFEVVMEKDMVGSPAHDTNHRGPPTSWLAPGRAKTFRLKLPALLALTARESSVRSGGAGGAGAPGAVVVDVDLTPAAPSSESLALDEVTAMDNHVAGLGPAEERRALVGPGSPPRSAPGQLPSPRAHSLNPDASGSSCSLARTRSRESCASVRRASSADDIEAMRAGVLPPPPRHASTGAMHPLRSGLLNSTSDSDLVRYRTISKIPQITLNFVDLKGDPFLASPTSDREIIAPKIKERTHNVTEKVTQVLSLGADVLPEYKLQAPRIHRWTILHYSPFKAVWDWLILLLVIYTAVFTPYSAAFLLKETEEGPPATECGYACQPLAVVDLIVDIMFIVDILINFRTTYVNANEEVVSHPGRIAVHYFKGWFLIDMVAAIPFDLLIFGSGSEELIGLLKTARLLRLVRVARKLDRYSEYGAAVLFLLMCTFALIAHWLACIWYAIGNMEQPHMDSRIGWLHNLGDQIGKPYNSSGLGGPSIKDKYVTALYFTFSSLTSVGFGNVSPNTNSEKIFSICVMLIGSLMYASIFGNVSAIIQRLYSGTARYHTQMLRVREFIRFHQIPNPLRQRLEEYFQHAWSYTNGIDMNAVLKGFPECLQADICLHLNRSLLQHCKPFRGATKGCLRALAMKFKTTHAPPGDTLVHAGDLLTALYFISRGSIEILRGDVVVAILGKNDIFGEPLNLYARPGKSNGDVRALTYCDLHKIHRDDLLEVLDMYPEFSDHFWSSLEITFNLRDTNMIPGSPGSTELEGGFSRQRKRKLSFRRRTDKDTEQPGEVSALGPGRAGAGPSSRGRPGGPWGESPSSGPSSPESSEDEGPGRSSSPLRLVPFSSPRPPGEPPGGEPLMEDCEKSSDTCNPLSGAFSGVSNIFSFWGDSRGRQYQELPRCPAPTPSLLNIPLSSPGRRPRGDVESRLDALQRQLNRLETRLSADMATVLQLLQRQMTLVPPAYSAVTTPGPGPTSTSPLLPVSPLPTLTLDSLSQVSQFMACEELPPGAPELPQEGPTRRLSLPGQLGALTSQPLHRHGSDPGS
Consider `COc1cccc(NC(=O)C2C(c3ccccc3)C2(Cl)Cl)c1` (stereo not shown), for which the “hERG current change (%, negative = inhibition) at 1uM” value is reported as 7.35%.
Under `CC(=O)N=c1c(C#N)cc2c(=O)n3ccccc3nc2n1CCCOC(C)C` stands 8.03%.
The result for `O=C1CN(C(=O)COc2cccc(F)c2)c2ccccc2N1` reads -0.68%.
Under `Cc1ccc(S(=O)(=O)N(CC(=O)Nc2cccc(N(C)S(C)(=O)=O)c2)c2ccc(Cl)c(Cl)c2)cc1` stands 12.6%; under `Cc1cccc(N2CCN(Cc3ccc4c(c3)OCO4)CC2)c1C`, 9.52%; under `C=CCN(CCNP(=O)(OCC)OCC)CP(=O)(OCC)OCC`, 9.69%.
Regarding `COc1ccc(CC(=O)N2CC3(C)CC2CC(C)(C)C3)cc1` (stereo not shown), the “hERG current change (%, negative = inhibition) at 1uM” value was 10.9%.
In the case of `CCCOc1ccc(C(=O)c2nc3c(n2O)CCCCC3)cc1`, the “hERG current change (%, negative = inhibition) at 1uM” value stood at 0.922%.
As to `CC(=O)C1=C(O)C(=O)N(c2ccc(O)cc2)C1c1ccccc1F` (stereo not shown), the “hERG current change (%, negative = inhibition) at 1uM” value came out at 16.4%.
Under `Cc1ccccc1-c1nc(CS(=O)CC(=O)NCCN2CCN(Cc3ccccc3)CC2)c(C)o1` (stereo not shown) stands -13.4%.
The result for `Cc1ccccc1N1CCN(C(=S)c2ccccc2)CC1` reads 7.3%; that for `O=C(CN1CCCC1)N/N=C/c1c(O)ccc2ccccc12`, 5.2%; that for `O=S(=O)(O)c1cc2oc(-c3ccccc3)nc2c2ccccc12`, 19.7%.
Regarding `COc1ccc(CN2CCN(CCCc3ccccc3)C(CCO)C2)cc1OC` (stereo not shown), the “hERG current change (%, negative = inhibition) at 1uM” value was -44.7%.
The result for `CC1(C)CC(=O)C(C=Nc2ccc3c(c2)OCO3)=C(O)C1` reads 5.35%; that for `CCn1cc(C(=O)Nc2ncccc2O)c(=O)c2cc(F)c(N3CCN(C(=O)c4ccco4)CC3)cc21`, 14.6%; that for `CC(=O)N1c2ccc(S(=O)(=O)NCCC(=O)N(C)C3CCCCC3)cc2CC1C` (stereo not shown), 11.4%.
Under `Cc1ccccc1NC(=O)CC1SC(=NC2CCCCC2)NC1=O` (stereo not shown) stands 18.3%; under `CCOC(=O)NC(Nc1cc(C)on1)(C(F)(F)F)C(F)(F)F`, 6.59%; under `Cc1ccc(CN2CCN(CC(=O)NC(C)c3ccc4c(c3)OCCO4)C2=O)cc1` (stereo not shown), 13%.
The result for `N=c1c(C(=O)NCc2ccco2)cc2c(=O)n3ccccc3nc2n1C1CCCC1` reads -82.2%; that for `Cc1cccc(N2CC(O)(c3cccs3)[N+]3=C2CCCC3)c1.[Br-]` (stereo not shown), 1.4%.
In the case of `CCOC(=O)C1CCCN(C(=O)c2cc(Nc3ccc(OC)c(OC)c3)nc3ccccc23)C1` (stereo not shown), the “hERG current change (%, negative = inhibition) at 1uM” value came out at 9.3%.
Turning to `Cc1cccc(N2CCN(C(=O)c3ccc4c(c3)c(C)c(C)n4C)CC2C)c1` (stereo not shown), the “hERG current change (%, negative = inhibition) at 1uM” value is 2.66%.
Under `CN1CCN(c2ccc(C(N)=O)cc2[N+](=O)[O-])CC1` stands 12.9%.
The result for `COCCN1Cc2cccc(C(=O)NCCCN3CCCC3=O)c2C1=O` reads 7.69%; that for `O=C(NCc1ccc(Cl)cc1)c1ccc(NC(=O)C2CCCO2)cc1` (stereo not shown), 9.39%.
Turning to `Cc1ccc(N2C(SCC(=O)O)=NC(=Nc3cccc(C)c3)C23CCCC3)cc1.I`, the “hERG current change (%, negative = inhibition) at 1uM” value came out at 5.61%.
Under `CC(C)NS(=O)(=O)c1ccc(OCC(=O)N2CCN(C)CC2)cc1` stands 13.2%.
Under `CN(CC(=O)Nc1ccc(Cl)c(C(F)(F)F)c1)Cc1cc(=O)n2ccsc2n1` stands -37.7%; under `CNC(=S)Nc1ccc([N+](=O)[O-])cc1`, 11.8%; under `O=C(Nc1ccccc1[N+](=O)[O-])C1COc2ccccc2O1` (stereo not shown), 10.7%.
For the molecule `Cc1ccc(C(=O)Nc2ccc3c(c2)nc(CCNC(=O)c2ccco2)n3C)cc1`, the “hERG current change (%, negative = inhibition) at 1uM” value was determined as 9.07%.
With `O=C(O)CC1COc2ccccc2N1C(=O)c1ccccc1Cl` (stereo not shown), the “hERG current change (%, negative = inhibition) at 1uM” value is given as 18.5%.
Under `O=C(Nc1ccc2c(c1)OCCO2)C1c2ccccc2C(=O)N2CCc3ccccc3C12` (stereo not shown) stands 7%; under `CCOC(=O)Cn1cc(C(=O)c2ccccc2)c2ccccc21`, 17.1%.
Take `COc1cc(OC)cc(-c2c(C#Cc3ccsc3)c3cc(-c4ccc5c(c4)OCCO5)ccc3n2C)c1`: the “hERG current change (%, negative = inhibition) at 1uM” value stood at 14.8%.
Under `COC(=O)C1=C(C)N(CCc2ccccc2)C(=O)/C1=C\c1ccco1` stands 0.773%; under `CC(=O)c1sc(NCCOc2ccc(C)cc2)nc1C`, 10.9%; under `COc1ccc(NC(=O)C(c2ccc(C)cc2)N(C)C(=O)c2ccc(=O)[nH]c2)cc1` (stereo not shown), 7.18%.
Take `COc1ccc(N2CCN(C(=O)c3ccccc3F)CC2)c([N+](=O)[O-])c1`: the “hERG current change (%, negative = inhibition) at 1uM” value is listed as -3.31%.
The result for `CN1/C(=C\C(=O)CSc2ncn[nH]2)C(C)(C)c2ccccc21` reads 1.41%; that for `COC(=O)Cc1c(C)c2ccc(O)c(CNCc3ccc(OC)c(OC)c3)c2oc1=O.Cl`, 7.91%; that for `CCn1c(Cc2ccc(OC)cc2)nnc1SCC(=O)Nc1nc2ccccc2s1`, 10.4%.
Turning to `Cc1ccc(S(=O)(=O)N2CCC(C(=O)N[C@@H](C)C(=O)NCC3CCCO3)CC2)cc1` (stereo partly shown), the “hERG current change (%, negative = inhibition) at 1uM” value is 3.15%.
Turning to `COc1ccc(/C=C/C(O)=C2/C(=O)NC3(C)CC2c2ccccc2O3)c(OC)c1OC` (stereo not shown), the “hERG current change (%, negative = inhibition) at 1uM” value was 11%.
For `C=CCN1C(=O)/C(=C/c2cc(C)n(-c3ccccn3)c2C)C(=O)NC1=S`, the “hERG current change (%, negative = inhibition) at 1uM” value was -2.61%.
Under `O=C(c1cc(S(=O)(=O)N2CCCCC2)ccc1Cl)N1CCOCC1` stands 9.56%; under `Cc1ccc2oc(=O)n(CCOc3ccccc3)c2c1`, 9.91%.
For the molecule `COc1ccc(NC2=C(Cl)C(=O)N(CCc3ccccc3)C2=O)c(OC)c1`, the “hERG current change (%, negative = inhibition) at 1uM” value turned out to be 12.7%.
Turning to `COc1ccc(-c2cc(-c3nnc(COC(=O)CC4CCCC4)o3)c3ccccc3n2)cc1OC`, the “hERG current change (%, negative = inhibition) at 1uM” value is given as 16.6%.
Take `C=CCN(C(=O)CNC(=O)c1ccco1)C(C(=O)NC1CCCCC1)c1ccccc1` (stereo not shown): the “hERG current change (%, negative = inhibition) at 1uM” value is 10.2%.
For `C/C(=N\NC(=O)c1nnn(-c2nonc2N)c1-c1ccc(Cl)c(Cl)c1)c1ccncc1`, the “hERG current change (%, negative = inhibition) at 1uM” value is 13%.
Under `COc1cc2ncnc(NCc3ccc4c(c3)OCO4)c2cc1OC` stands 4.43%; under `CC1C(=O)N2CCCc3cc(S(=O)(=O)N4CCN(c5ccc(F)cc5)CC4)cc1c32` (stereo not shown), 9.22%; under `COc1cccc2cc(C(=O)N3CCN(C/C=C/c4ccccc4)CC3)c(=O)oc12`, 4.24%.
Under `N#C/C(=C\c1ccc(N2CCCCC2)o1)C(=O)Nc1cccc(Br)c1` stands 8.7%; under `CC(=O)CCc1ccc(OCC(O)CNC2CCCc3ccccc32)cc1.O=C(O)C(=O)O` (stereo not shown), -0.128%; under `CC(C)c1[nH]nc2c1C(c1cccc(OC(=O)N3CCOCC3)c1)C(C#N)=C(N)O2` (stereo not shown), 10.2%.
As for `O=C(CC1CCCCC1)Nc1nc2ccccc2s1`, the “hERG current change (%, negative = inhibition) at 1uM” value is given as -3.29%.
Under `Cc1ccc(NC(=O)c2cc(S(=O)(=O)N3CCOCC3)ccc2F)c(C)c1` stands 5.8%.
The result for `COc1ccc(OCC(=O)Nc2ccc3c(c2)nc(CCNC(C)=O)n3C)cc1` reads 12.4%; that for `O=C(Cn1nnc(-c2ccc(F)cc2)n1)OCC(=O)c1ccccc1`, 9.68%.
The result for `Cc1ccc(CCNS(=O)(=O)c2ccc3c(c2)NC(=O)C(C)C(=O)N3)cc1` (stereo not shown) reads 17.9%; that for `O=C(c1ccccc1)c1ccc2c(c1)OCCOCCOCCO2`, 8.88%.
`CCN1CCN(CC(=O)Nc2ccc(C)c(Br)c2)CC1.Cl`: the “hERG current change (%, negative = inhibition) at 1uM” value is listed as -13.5%.
The result for `CN1CCN(Cc2nc3ccccc3n2C)CC1` reads 2.85%.
The result for `COc1cc2c(cc1NC(=O)/C=C/c1cc(OC)c(OC)c(OC)c1)oc1ccccc12` reads 4.79%.
With `CN(Cc1ccccc1)S(=O)(=O)c1ccc(N2CCOCC2)nc1`, the “hERG current change (%, negative = inhibition) at 1uM” value is recorded as 14.1%.
The result for `CCOc1ccc(-n2c(O)c(C=NCCCn3ccnc3)c(=O)[nH]c2=O)cc1` reads 13.4%; that for `Cc1ccc(NC(=O)[C@H](C)NC(=O)C2CCN(C(=O)[C@H](CC(C)C)NC(=O)OC(C)(C)C)CC2)cc1`, 2.26%; that for `COC(=O)CN1C(=O)CC(C)(C)Sc2ccccc21`, 11.6%.
As for `CCOC(=O)C1=C(COC(=O)C2CC(=O)N(c3ccccc3F)C2)NC(=O)NC1C` (stereo not shown), the “hERG current change (%, negative = inhibition) at 1uM” value is 4.7%.
The result for `Cc1ccc(N2CC(C(=O)OCc3nnc(-c4ccccc4)o3)CC2=O)cc1` (stereo not shown) reads 32%; that for `O=C(NC1CCCCC1)C(c1ccc2ncccc2c1)N(Cc1ccc(F)cc1)C(=O)c1ccc2c(c1)OCCO2` (stereo not shown), 8.72%; that for `Cc1cc(C)nc(NC(=O)c2ccc([N+](=O)[O-])o2)n1`, 0.245%.
For `O=C(COc1ccc(Br)cc1)N/N=C1/SCC(=O)N1Cc1ccccc1`, the “hERG current change (%, negative = inhibition) at 1uM” value is listed as -4.03%.
Turning to `COc1cc(/C=C2\C(=O)ON=C2c2ccc(Cl)cc2)ccc1O`, the “hERG current change (%, negative = inhibition) at 1uM” value amounted to 12.6%.
`CCCn1c2ccccc2c2cnn(CC(=O)NC(C)CC)c(=O)c21` (stereo not shown): the “hERG current change (%, negative = inhibition) at 1uM” value came to 11.7%.
The result for `Cc1ccc(-c2noc(CNc3ccccc3)n2)cc1` reads 6.42%; that for `COc1cc(OC)c(C2N(c3ccc(Cl)c(Cl)c3)C(=O)C3CCCN32)cc1OC` (stereo not shown), 2.22%; that for `CN1C(=O)C2(Oc3ccccc3C3CC(c4ccccc4)=NN32)c2ccccc21` (stereo not shown), 6.1%.
In the case of `O=C(O)C(O)c1ccccc1.O=C(O)C(O)c1ccccc1` (stereo not shown), the “hERG current change (%, negative = inhibition) at 1uM” value is recorded as 18.6%.
Consider `CCN(CC(=O)Nc1ccc(S(=O)(=O)N2CCOCC2)cc1)Cc1ccccc1`, for which the “hERG current change (%, negative = inhibition) at 1uM” value came out at 17%.
Turning to `Cc1cc(C(F)(F)F)c2c(C)nn(CCc3nn[nH]n3)c2n1`, the “hERG current change (%, negative = inhibition) at 1uM” value is -0.22%.
